According to publication PMC6919601, “Identification of Plasmodium dipeptidyl aminopeptidase allosteric inhibitors by high throughput screening” (PLoS ONE, 2019):
Values joined by “and” are separate entries in the source; they are usually repeats but may differ in a detail not shown here. Equal values may be shown once. Screen size: about 110,000 compounds; about 230 (0.21%) showed an effect of 50% or more. Some of the results follow.

Molecular target: DPAP1 (Plasmodium falciparum, UniProt Q8IIJ9)
Sequence (Q8IIJ9 whole entry, looked up): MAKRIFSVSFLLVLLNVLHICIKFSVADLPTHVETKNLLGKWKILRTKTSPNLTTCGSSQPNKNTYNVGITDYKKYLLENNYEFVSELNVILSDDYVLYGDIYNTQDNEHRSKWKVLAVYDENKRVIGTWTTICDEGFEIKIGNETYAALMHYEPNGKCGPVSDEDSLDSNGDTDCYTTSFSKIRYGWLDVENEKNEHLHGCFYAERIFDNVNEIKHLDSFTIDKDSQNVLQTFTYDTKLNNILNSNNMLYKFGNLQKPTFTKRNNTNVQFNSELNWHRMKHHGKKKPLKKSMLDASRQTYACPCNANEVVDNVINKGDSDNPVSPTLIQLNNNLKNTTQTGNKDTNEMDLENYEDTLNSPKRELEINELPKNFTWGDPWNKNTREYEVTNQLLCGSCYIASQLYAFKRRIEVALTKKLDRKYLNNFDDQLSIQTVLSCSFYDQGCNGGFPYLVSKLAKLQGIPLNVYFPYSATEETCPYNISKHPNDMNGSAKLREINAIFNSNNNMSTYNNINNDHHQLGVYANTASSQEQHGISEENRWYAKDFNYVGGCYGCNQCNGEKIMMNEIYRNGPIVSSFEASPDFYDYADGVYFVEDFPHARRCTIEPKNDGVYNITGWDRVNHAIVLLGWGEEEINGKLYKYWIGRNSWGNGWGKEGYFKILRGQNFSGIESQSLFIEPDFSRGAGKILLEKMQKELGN
Experiment: primary screen, percent inhibition; read by cleavage of a fluorogenic dipeptide substrate; higher = more effect of the substance
Design: species or system P. falciparum D10 trophozoite lysates; single well
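Note: 30 min substrate incubation versus DMSO and 10 µM JCP410 controls.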

Row | Structure (SMILES) | % Inhibition @ 10 uM
1 | O=C1NC2SCCCN2C(O)=C1C(C1=C(O)N2CCCSC2NC1=O)c1ccc(O)cc1 (stereo not shown) | 1.96%
2 | O=C(O)CCSc1nccn1Cc1ccccc1 | -0.0217%
3 | O=C(C1CCC(CNS(=O)(=O)c2ccc(Cl)cc2)CC1)N1CCN(Cc2ccccc2)CC1 (stereo not shown) | -8.34%
4 | CC1(C)Cc2nc(O)c(C#N)cc2CO1 | -1.93%
5 | CC1=C(C(=O)Nc2ccccn2)C(c2ccccc2C)C2=C(O)CC(C)(C)CC2=N1 (stereo not shown) | -0.305%
6 | COc1cccc(C2=N/C(=C\c3cc(OC)c(OC)cc3OC)C(=O)O2)c1 | -34.6%
7 | CN(Cc1ccccc1)c1c(-c2ccccc2)c(=O)c1=O | 0.867%
8 | O=C1N=C(Nc2ccc(Br)cc2)S/C1=C\c1cccs1 | -4.7%
9 | CS(=O)(=O)c1nc(S(=O)(=O)c2ccc(Cl)cc2)c(NCC2CCCO2)s1 (stereo not shown) | -0.522%
10 | COc1cc2c(cc1OC)CN(CCC(=O)O)CC2 | 1.04%
11 | CC1CCCC(NC(=O)Cn2cnc3c(nc4n3CCCCC4)c2=O)C1C (stereo not shown) | 8.03%
12 | CC(C)CC(NC(=O)c1cnccn1)C(=O)NCC#N (stereo not shown) | -5.64%
13 | CCOC(=O)C1=CN(C(C)C)C=C(C(=O)OCC)C1c1ccc(OCC)cc1 | 1.86%
14 | CCCOc1ccc(N2C(=O)CC(NCCc3ccccc3)C2=O)cc1 (stereo not shown) | -0.28%
15 | CCCCn1cnc2scc(-c3ccc(C)cc3)c2c1=O | 7.33% and 1.19%
16 | O=C(c1sc2ccccc2c1Cl)N1CCC(Cc2ccccc2)CC1 | 1.88%
17 | Cc1ccc2c(Cl)c(C(=O)N3CCN(c4ccc([N+](=O)[O-])cc4)CC3)sc2c1 | 3.76%
18 | N#Cc1c(NC(=O)Nc2ccc(Cl)cc2)sc2c1CCC2 | 2.67%
19 | C=CCN1C(=O)/C(=C\c2ccc(N(CC)CC)cc2O)SC1=S | -5.62%
20 | CC(=O)Nc1ccc(NC(=O)c2cccc(Cl)c2Cl)cc1 | 3.74%
21 | CCC(C)NC(=O)Cn1ncc2c3ccccc3n(Cc3ccccc3)c2c1=O (stereo not shown) | -1.58%
22 | COc1ccc(CCNC(=O)C2(S(=O)(=O)c3ccc(Cl)cc3)CC2)cc1OC | -0.668%
23 | CN1C2CCC1CC(NCc1ccccc1)C2 (stereo not shown) | 0.986%
24 | Cc1ccc2c(c1C)OC(=O)CC2c1ccccc1 (stereo not shown) | 4.61%
25 | COc1ccccc1-c1cc(-c2ccccc2)nc(SC(C(N)=O)c2ccccc2)c1C#N (stereo not shown) | 6.18%

Row | Structure (SMILES) | % Inhibition @ 10 uM
26 | Cc1ccc(S(=O)(=O)Nc2ccc(NC(=O)C3CCCCC3C(=O)O)cc2)cc1 (stereo not shown) | -3.45%
27 | CC(C)(C)NC(=O)c1cccc2c1C(=O)N(C1CCCCC1)C2 | -1.03%
28 | CC(C)(C)C(=O)CC(c1ccc(Cl)cc1)C1C(=O)c2ccccc2C1=O (stereo not shown) | 11.4%
29 | COC(=O)C1=C(O)/C(=C/c2ccc(OCC(=O)NC3CCCCC3)cc2)N=C1C | -3.4%
30 | CS(=O)(=O)N(CC(=O)Nc1cccnc1)c1ccccc1Br | 2.82%
31 | CCOC(=O)C1=C(COc2ccc(F)cc2Cl)NC(=O)NC1c1ccc2c(c1)OCO2 (stereo not shown) | -4.04%
32 | COCCN1C(=O)c2ccccc2C(C(=O)NC2CCCC(C)C2C)C1c1cccs1 (stereo not shown) | 3.54%
33 | OC(COc1ccc(Br)cc1)CN1CCN(Cc2ccc(Cl)cc2)CC1 (stereo not shown) | -1.36%
34 | COc1ccc(CCNC(=O)C2CCCN(S(=O)(=O)N3CCCCC3)C2)c(OC)c1 (stereo not shown) | -1.38%
35 | Cc1nn(C(C)C(=O)NC(C)c2ccccc2)c(=O)c2cc3occc3n12 (stereo not shown) | -3.79%
36 | COCCNC(=O)/C(C#N)=C/c1c(Oc2ccc(Br)cc2)nc2c(C)cccn2c1=O | -3.23%
37 | CC(C)CCN(CCOC(=O)Nc1ccccc1)C(=O)Nc1ccccc1 | 2.62%
38 | COC(=O)C1=CN(Cc2cccs2)C=C(C(=O)OC)C1c1ccc(C(F)(F)F)cc1 | 3.47%
39 | CCSC1=NSC2=NC(=O)/C(=C\c3ccc4c(c3)OCO4)C(=N)N12 | -5.51%
40 | Oc1nc(SCc2ccccc2)nc2c1CCC2 | -1.06%
41 | CCOP(=O)(/C(=C(\NC(=O)c1ccccc1)C(=O)N1CCOCC1)c1ccccc1)c1ccccc1 (stereo not shown) | 3.65%
42 | COC(=O)c1cc(S(=O)(=O)N2CCN(C(c3ccc(F)cc3)c3ccc(F)cc3)CC2)c[nH]1 | 7.12%
43 | O=C(COc1ccccc1)NCCCc1nc2ccccc2n1Cc1ccccc1F | 5.4%
44 | O=C(ON1C(=O)CCC1=O)c1cc(N2C(=O)c3ccccc3C2=O)ccc1Cl | -2.83%
45 | OCC1CCCN(Cc2ccsc2)C1 (stereo not shown) | 0.135%
46 | Cc1nc2c(nnn2Cc2ccccc2)c(=O)n1C | 4.19%
47 | CC(C)C[C@H](NC(=O)c1ccc(-c2ccsc2C#N)cc1)C(=O)NCC#N | 1.16%
48 | CC1(C)CC2=Nc3ccccc3NC(c3cccc(C(F)(F)F)c3)C2=C(O)C1 (stereo not shown) | -5.73%
49 | CC(=O)c1cccc(NC(=O)Nc2ccc(Cl)cc2)c1 | 1.25%
50 | COc1ccc(-c2nc(-c3ccncc3)no2)cc1 | -1.66%

Row | Structure (SMILES) | % Inhibition @ 10 uM
51 | CC(C)C[C@H](NC(=O)c1ccc(NC(=O)OC(C)(C)C)cc1)C(=O)NCC#N | -1.41%
52 | COCCN1C=C(C(=O)OC)C(c2ccc(O)cc2)C(C(=O)OC)=C1 | -5.01%
53 | CCn1c(C(=O)NCc2ccc(F)cc2)cc2sccc21 | -3.08%
54 | COc1ccc(/C=C(/C(=O)c2ccc(Cl)cc2Cl)n2cncn2)cc1OC | 0.00706%
55 | CCOC(=O)c1cnc(Nc2nc3ccccc3o2)nc1CSc1nc2ccccc2s1 | 0.628%
56 | c1ccc(CCN2CCC(N3CCC(Cc4ccccc4)CC3)CC2)cc1 | -0.0908%
57 | c1ccc(Cn2ncc3c2ncn2nc(CSc4nc5ccccc5s4)nc32)cc1 | -2.14%
58 | CC(C)C[C@@H](CN1CC[C@@H](NC(=O)[C@H](CC(C)C)NC(=O)OCc2ccccc2)C1)NC(=O)OCc1ccccc1 | -0.778%
59 | CCOc1ccc(-c2noc(CCC(=O)O)n2)cc1 | -2.4%
60 | Cc1ccc(-c2cc(C(=O)NCc3cccnc3)no2)cc1 | 3.54%
61 | O=[N+]([O-])c1ccc(C2Sc3ccccc3N=C3C2=C(O)c2ccccc23)cc1 (stereo not shown) | -2.32%
62 | CCCc1nn(C)c2c(O)nc(-c3cc(S(=O)(=O)Nc4ccccc4)ccc3OCC)nc12 | -1.89%
63 | CCCc1[nH]nc2c1C(c1c(C)nn(-c3ccccc3)c1Cl)C(C#N)=C(N)O2 (stereo not shown) | -0.759%
64 | CC(=O)Nc1sccc1C(=O)Nc1ccccc1 | -1.04%
65 | COc1ccc(-c2noc(CN(C(=O)c3c(-c4ccccc4Cl)noc3C)C(C)C)n2)cc1 | -0.683%
66 | O=[N+]([O-])c1ccc(CN2CCN(c3ccc(F)cc3)CC2)o1 | -1.98%
67 | COc1ccc(CNc2ncnc3onc(-c4ccc(Cl)cc4)c23)cc1 | 0.945%
68 | CC(=O)NCCSCCNC(C)=O | 4.73%
69 | C=C(C)c1cccc(C(C)(C)NC(=O)NC23CC4CC(CC(C4)C2)C3)c1 | -5.85%
70 | NC(=O)c1c(NC(=O)c2ccc(Cn3cc(Cl)cn3)cc2)sc2c1CCCC2 | 5.66%
71 | COc1cccc(NC(=O)CN(c2cccc(F)c2)S(C)(=O)=O)c1 | 2.19%
72 | Cc1ccc(-c2nc(CS(=O)(=O)CC(=O)N3CCOCC3)c(C)o2)cc1 | -1.89%
73 | CCCOc1ccc(C(=O)Nc2c(O)oc3ccccc3c2=O)cc1 | -1.68%
74 | Clc1ccc(COc2ccccc2CNCc2cccnc2)cc1 | -6.02%
75 | Cc1cc(C(=O)Nc2cccc(F)c2)c(C)o1 | 11.2%

Row | Structure (SMILES) | % Inhibition @ 10 uM
76 | COc1ccc(CNC(=O)C2CC(c3ccccc3F)=NO2)cc1 (stereo not shown) | -3.94%
77 | COc1cc(C(=O)Nc2cccc(Cl)c2)cc(OC)c1OC | -3.57%
78 | O=C(c1ccc(Cl)cc1)N(Cc1ccco1)C1CCS(=O)(=O)C1 (stereo not shown) | -1.11%
79 | CN1CCN(Cc2nnc(S)n2-c2cccc3ccccc23)CC1 | 2.6%
80 | N#Cc1ccc(C(=O)Nc2ccc(N3CCCCC3)c(Cl)c2)c(F)c1 | -12.5%
81 | N#CCc1nc(-c2ccc(Br)cc2)cs1 | -1.69%
82 | NC(=O)c1ccc(NC(=O)c2cc3ccccc3cc2O)cc1 | 2.6%
83 | COc1ccc(NC(=O)c2cccc(C)c2)c(OC)c1 | -2.6%
84 | COc1ccc(/N=C2/S/C(=C\c3cc(Br)ccc3OCC(=O)O)C(=O)N2C)cc1 | 8.18%
85 | CCOC(=O)C1=C(CS(=O)(=O)c2ccc(F)c(C)c2)NC(=O)NC1c1ccc(C(C)C)cc1 (stereo not shown) | 4.41%
86 | CC1CC(O)(C#CC2(O)CC(C)SC3CCCCC32)C2CCCCC2S1 (stereo not shown) | 1.7%
87 | Cc1ccc(S(=O)(=O)c2nc(S(C)(=O)=O)sc2NCc2ccco2)cc1 | -2.25%
88 | O=C(NCC1CCCO1)c1cc(-c2ccccn2)nc2ccc(S(=O)(=O)N3CCOCC3)cc12 (stereo not shown) | 3.66%
89 | COCc1cc(C)nc(SCC(=O)Nc2ccccc2OC)c1C#N | 1.02%
90 | COc1ccc(S(=O)(=O)N(CC(=O)Nc2ccc(F)cc2)c2cc(C)cc(C)c2)cc1OC | -0.796%
91 | CC(C)CC(=O)NC(=C(Cl)Cl)S(=O)(=O)c1ccccc1 | -6.27%
92 | COCCCN1C(=O)C(O)=C(C(=O)c2ccc(OC)cc2)C1c1ccc(Cl)cc1 (stereo not shown) | 3.53%
93 | COc1cc(C2C(C(=O)c3cccs3)=C(O)C(=O)N2Cc2cccnc2)ccc1O (stereo not shown) | -1.25%
94 | CCN1C(=O)c2ccc(-c3nc4ccccc4s3)cc2C1=O | 15.7%
95 | CCOc1cccc(C2CC(=O)Nc3cc4c(cc32)OCO4)c1 (stereo not shown) | 0.475%
96 | Cc1cc(C)n2nc(SCC(=O)NCCC(C)C)nc2n1 | -4.06%
97 | O=C(CN(c1ccccc1F)S(=O)(=O)c1ccccc1)NCc1ccccc1 | 0.324%
